# Measured values reported in paper PMC6919601, “Identification of Plasmodium dipeptidyl aminopeptidase allosteric inhibitors by high throughput screening” (PLoS ONE, 2019).
# Hit rate of the full screen: of about 110,000 compounds, about 230 (0.21%) showed an effect of 50% or more. This is one part of the list.
# Molecular target: DPAP1 (Plasmodium falciparum, UniProt Q8IIJ9)
# Test: primary screen, percent inhibition; read by cleavage of a fluorogenic dipeptide substrate; higher = more effect of the substance
# Set-up: species or system P. falciparum D10 trophozoite lysates; single well
# 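Also: 30 min substrate incubation versus DMSO and 10 µM JCP410 controls.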
# Chain of DPAP1 (Q8IIJ9 whole entry, looked up): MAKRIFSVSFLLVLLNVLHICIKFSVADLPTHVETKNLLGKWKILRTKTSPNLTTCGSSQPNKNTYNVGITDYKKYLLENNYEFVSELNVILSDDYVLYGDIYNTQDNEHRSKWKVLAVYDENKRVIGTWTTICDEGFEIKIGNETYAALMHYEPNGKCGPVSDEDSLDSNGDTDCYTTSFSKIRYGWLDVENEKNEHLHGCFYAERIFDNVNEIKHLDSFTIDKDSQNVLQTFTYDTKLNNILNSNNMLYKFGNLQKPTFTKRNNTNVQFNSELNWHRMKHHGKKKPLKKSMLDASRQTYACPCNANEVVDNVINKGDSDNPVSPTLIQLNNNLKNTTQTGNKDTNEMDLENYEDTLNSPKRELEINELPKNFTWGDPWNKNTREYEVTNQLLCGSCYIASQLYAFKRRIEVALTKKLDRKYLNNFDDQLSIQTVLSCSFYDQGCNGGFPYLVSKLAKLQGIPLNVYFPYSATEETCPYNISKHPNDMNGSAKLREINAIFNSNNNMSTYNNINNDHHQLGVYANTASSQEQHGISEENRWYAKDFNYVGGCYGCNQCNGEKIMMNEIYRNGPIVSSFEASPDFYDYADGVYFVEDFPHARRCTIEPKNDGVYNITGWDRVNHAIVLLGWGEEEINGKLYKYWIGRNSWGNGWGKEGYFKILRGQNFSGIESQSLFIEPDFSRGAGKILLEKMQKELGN
row,SMILES,% Inhibition @ 10 uM [%]
1,C=CCn1c(=N)c(C(=O)NCCN2CCOCC2)cc2c(=O)n3ccccc3nc21,-3.27
2,CC(=O)Nc1ccc(S(=O)(=O)Nc2cccc(C)c2)cc1,-6.22
3,COc1ccc(/C=C/C(=O)NC2CCCCCC2)cc1OC,3.48
4,COc1ccc(CN2CCN(c3ccc([N+](=O)[O-])cc3)CC2)c(C)c1C,7.8
5,Cc1cc(C)c(S(=O)(=O)Nc2ccccc2C(=O)N2CCCC2)c(C)c1,4.05
6,CCO/C(O)=C(\C#N)c1nc(O)nc2ccccc12,-3.33
7,CC1=CC(=C2C(=O)c3ccccc3C2=O)C=C(C)N1Cc1ccccc1,7.05
8,CCc1ccc(-c2cn3c(n2)sc2cc(C(=O)NCCCN4CCCC4=O)ccc23)cc1,2.73
9,Cc1ccc(C)c(OCC(=O)Nc2nccs2)c1,-0.95
10,CCCN1C/C(=C\c2ccc(N(C)C)cc2)C(=O)/C(=C/c2ccc(N(C)C)cc2)C1,1.63
11,O=C(NCc1ccccc1)c1ccc2c(c1)C(=O)N(Cc1cccnc1)C2=O,-0.132
12,COc1ccc(CC(=O)Nc2sc3c(c2C#N)CCCCC3)cc1OC,-3.19
13,CC(=O)Nc1ccc(NC(=O)c2ccc(C(C)(C)C)c(Br)c2)cc1,-11.6
14,O=C(CN1C(=O)C2C3C=CC(C3)C2C1=O)NC1CCCc2ccccc21 (centres unmarked),1.26
15,COc1ccccc1C1CC(=O)Nc2cc3c(cc21)OCCO3 (centres unmarked),1.93
16,Cc1ccc(-c2csc(NC(=O)c3ccccc3Br)n2)cc1,4.54
17,CCOP(C)(=O)CN1CCOCC1 (centres unmarked),-6.52
18,O=C(CC(c1ccccc1)c1ccccc1)NCCn1ccc2ccccc21,-4.16
19,C=CCN(CC(=O)Nc1c(C)cccc1CC)C(=O)SCC,3.56
20,Cn1c(=O)c2c(ncn2CC(O)CN2CCCC2)n(C)c1=O (centres unmarked),-6.67
21,Cc1ccc2nc(C)c3c(c2c1)OC(C)C3 (centres unmarked),2.65
22,Cc1cc(C)c2c(n1)SCC(=O)N2CCCC(=O)NCc1ccco1,4.22

row,SMILES,% Inhibition @ 10 uM [%]
1,CCNC(=S)NCCc1c(C)[nH]c2ccc(F)cc12,-2.16
2,O=S(=O)(c1ccccc1)c1cnc2ccccc2c1NCc1ccccc1,-8.38
3,CN(C)C(c1ccccc1)c1nnnn1C(/C=C\c1ccc(Cl)cc1Cl)C(C)(C)C (centres unmarked),2.5
4,COC(=O)c1ccc(C2C(C(=O)c3ccccc3)C(C)Nc3nc4ccccc4n32)cc1 (centres unmarked),2.7
5,O=C(CN1CCOCC1)NC1c2ccccc2CSc2ccccc21 (centres unmarked),-1.91
6,CN(Cc1ccccc1)C(=O)CNC(=O)Cn1ccc2ccccc2c1=O,-2.49
7,CSc1ccc(C2C3=C(O)CCCC3=NC(C)=C2C(=O)Nc2ccccn2)cc1 (centres unmarked),2.48
8,Cc1ccc(S(=O)(=O)c2cnc3ccccc3c2N2CCOCC2)cc1C,-8.57
9,COc1ccccc1NC(=O)c1sc(NC(=O)Cc2cccs2)c(C#N)c1C,-6.36
10,COc1ccc(C2CC(=O)N(C)C3=C2C(=O)CC(C)(C)C3)c(OC)c1 (centres unmarked),-2.84
11,CC1=C(C#N)C(c2ccc3c(c2)OCO3)C2=C(O)CC(C)(C)CC2=N1 (centres unmarked),-2.53
12,Cc1ccc(-c2nnc(C3CCN(S(=O)(=O)c4ccc(Br)s4)CC3)o2)cc1,5.53
13,O=C(O)CSc1cccc2c(SCC(=O)O)cccc12,1.24
14,O=C(O)COc1ccccc1/C=C1\SC(Nc2ccc(Br)cc2)=NC1=O,24
15,CCN(CC)CCN(C)C/C(C)=C/c1ccccc1,-4.75
16,Cc1ccc(C2C(=O)N(C3CCCC3)CC(=O)N2CCC2=CCCCC2)cc1 (centres unmarked),-4.06
17,COc1ccc(Cl)cc1N(CC(=O)Nc1ccccc1C)S(C)(=O)=O,-7.23
18,Clc1ccc(CN2CCN(C/C=C/c3ccccc3)CC2)c(Cl)c1,-0.192
19,CC1(C)CC(CC(=O)O)(c2ccccc2)CCO1 (centres unmarked),2.62
20,Cc1ccc2c(c1)c1c(n2C)C(C#N)CCC1 (centres unmarked),-3.48
21,CCN(CC)C(=O)Cn1ncc2c3ccccc3n(Cc3c(C)cc(C)cc3C)c2c1=O,1.8
22,FC(F)(F)c1cccc(N2CCN(Cc3ccccc3Br)CC2)c1,-1.92

row,SMILES,% Inhibition @ 10 uM [%]
1,O=C1N=C(c2ccccc2)S/C1=C\c1cccs1,7.26
2,O=C(c1ccc(Br)cc1)N1CCOCC1,-7.52
3,Cn1c(=O)c(-c2ccccc2)c2c3c(cccc31)C(=O)c1ccccc1-2,-8.64
4,N#CC1=C(N)SC(N)=C(C#N)C1c1cccnc1,0.731
5,CCn1nc(C)c(C2C(C#N)=C(N)OC3=C2C(=O)CC(C)(C)C3)c1C (centres unmarked),4.56
6,O=C(NC1CCCCC1)C1CCN(S(=O)(=O)c2ccc3[nH]c(-c4ccccc4)nc3c2)CC1,-5.92
7,CCOC(=O)c1ccc(-c2ccc(C3NC(=O)c4c(sc5c4CCN(C)C5)N3)o2)cc1 (centres unmarked),6.08
8,COc1ccc(-c2nc(CSc3nc4cccnc4[nH]3)c(C)o2)cc1,-3.05
9,Cc1cc2nc3n(c2cc1C)CCCN3,-1.32
10,CCOc1ccc(-c2cc(NC(=O)c3ccc(Br)o3)c(C(=O)OC)s2)cc1,-3.96
11,CC(NC(=O)CCn1nc(-c2ccccc2)c2ccccc2c1=O)c1ccccc1 (centres unmarked),-4.84
12,CCOc1cc2c(cc1OCC)C(c1cc(OC)c(O)c(OC)c1)NCC2 (centres unmarked),-2.67
13,Oc1cccc(-c2nc(O)c3c(n2)Oc2ccccc2C3)c1,-2.84
14,Cn1c(NC(=O)c2cc(-c3ccc4c(c3)OCO4)nc3ccccc23)cc(=O)n(C)c1=O,-6.58
15,O=C(O)C1CCCCC1C(=O)NCC1CCCO1 (centres unmarked),-2.66
16,CCCC(=O)NCc1cn2ccsc2n1,7.12
17,NC(=O)c1c(NC(=O)CCC2CCCCC2)sc2c1CCCC2,0.431
18,COc1cccc(N(CC(=O)NC2CCCCC2)S(=O)(=O)c2ccccc2)c1,-9.2
19,Cc1ccc(CC(=O)NCc2nc(-c3ccc(Cl)cc3)no2)cc1,-4.82
20,CCC(C)NC(=O)Cn1nc(C)c2c(C)n(-c3ccccc3)nc2c1=O (centres unmarked),-11.3
21,Cn1c(=O)c2c(-c3ccc(C(C)(C)C)cc3)n(C3CCCC3)cc2n(C)c1=O,-1.35
